{"source": "patent US6716811B1", "about": "“Compounds having affinity for the granulocyte-colony stimulating factor receptor (G-CSFR) and associated uses” (Affymax, Inc., priority 2000, dated 2004)", "note": "At least one peptide structure holds a part that was inferred or is arguable (an end, a ring closure or a residue). At least one compound was matched to its structure with a doubt left. Where a SMILES comes first, the peptide text is derived from it. Bridges are numbered along the chain shown (N, C = ends). Roman numbers before positions name the chains, in order. Where no end group is shown, it is not given here. The star is where a group is joined. Biotin = O=C1N[C@H]2[C@H](CS[C@H]2CCCCC(=O)*)N1"}
{"biological_target": "T1, G-CSFR (Homo sapiens, UniProt Q99062)", "T1 construct": "incubation with soluble G-CSFR harvest; made in house", "T1 sequence (Q99062 25-627)": "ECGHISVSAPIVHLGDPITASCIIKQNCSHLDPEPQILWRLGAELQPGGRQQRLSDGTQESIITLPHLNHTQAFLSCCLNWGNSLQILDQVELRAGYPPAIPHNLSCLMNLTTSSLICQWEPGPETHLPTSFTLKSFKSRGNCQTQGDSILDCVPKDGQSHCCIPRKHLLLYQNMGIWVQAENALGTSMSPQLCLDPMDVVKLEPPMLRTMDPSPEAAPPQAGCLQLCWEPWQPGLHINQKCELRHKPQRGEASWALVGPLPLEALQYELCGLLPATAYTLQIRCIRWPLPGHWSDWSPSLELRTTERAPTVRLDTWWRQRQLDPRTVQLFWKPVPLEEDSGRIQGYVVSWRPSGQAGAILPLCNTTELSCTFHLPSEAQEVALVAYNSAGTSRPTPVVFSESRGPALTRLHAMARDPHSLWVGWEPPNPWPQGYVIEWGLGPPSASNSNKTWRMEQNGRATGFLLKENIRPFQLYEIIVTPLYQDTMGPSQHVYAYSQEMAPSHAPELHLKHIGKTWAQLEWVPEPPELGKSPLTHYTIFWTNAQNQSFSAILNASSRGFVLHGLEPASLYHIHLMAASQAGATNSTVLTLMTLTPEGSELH", "experiment": "G-CSF radioligand binding assay (SPA beads, 125I labeled G-CSF)", "conditions": "reduction by 50% of 125I labeled G-CSF bound to immobilized G-CSFR; overnight at 4° C.", "method": "Streptavidin-coated scintillation proximity assay (SPA) beads (Amersham) were mixed with biotinylated anti-receptor immobilizing antibody (Ab179) followed by incubation with soluble G-CSFR harvest. Receptor-coated SPA beads were washed twice in PBS/0.1% BSA and distributed to wells of a white polystyrene 96-well microtiter plate (Packard). Serial dilutions of peptide or peptide mimetic were mixed with a constant amount of ^125I labeled G-CSF (10^5 cpm; 1290 Ci/mmol) in PBS/0.1% BSA, added to wells containing receptor-coated SPA beads, and incubated overnight at 4° C. The binding of radiolabeled G-CSF to the receptor-coated SPA bead brings the isotope in close proximity to the scintillant, which allows the emitted radiation to stimulate the scintillant to emit light. […] The amount of ^125I labeled G-CSF that was bound at equilibrium was measured by counting the plate in a TopCount (Wallac) microtiter plate luminometer. […] One can determine the concentration at which the peptide or peptide mimetic will reduce by 50% (IC50) the amount of ^125I labeled G-CSF bound to immobilized G-CSFR.", "units": {"IC50": "µM"}}
{"compound": "CC[C@H](C)[C@H](NC(=O)[C@H](CC(=O)O)NC(=O)[C@H](CC(C)C)NC(=O)[C@H](CC(C)C)NC(=O)CCCC[C@@H]1SC[C@@H]2NC(=O)N[C@@H]21)C(=O)N[C@H]1CSSC[C@@H](C(=O)N[C@@H](C)C(=O)N[C@@H](CCCNC(=N)N)C(=O)N[C@@H](CCCNC(=N)N)C(=O)N[C@@H](C)C(=O)N[C@@H](CC(N)=O)C(=O)O)NC(=O)[C@H](CCC(=O)O)NC(=O)[C@H](CCC(N)=O)NC(=O)[C@H](CC(C)C)NC(=O)[C@H](CCCCN)NC(=O)[C@H](CC(C)C)NC(=O)[C@H](CCC(=O)O)NC1=O", "note": "[Example 59, Biotin-LLDICELKLQECARRAN] (Biotin-LLDICELKLQECARRAN-OH; disulfide 5-12 (inferred); C-terminus assumed)", "IC50": "0.5 to 200"}
{"compound": "CSCC[C@H](NC(=O)CNC(=O)CNC(=O)CNC(=O)[C@H](CCCCN)NC(=O)CCCC[C@@H]1SC[C@@H]2NC(=O)N[C@@H]21)C(=O)N[C@@H](CC(C)C)C(=O)N[C@@H](C)C(=O)N[C@@H](CCC(=O)O)C(=O)N[C@@H](CCCNC(=N)N)C(=O)N[C@@H](CCCCN)C(=O)N[C@@H](C)C(=O)N[C@@H](CCC(=O)O)C(=O)N[C@@H](CCC(=O)O)C(=O)N[C@@H](CCCNC(=N)N)C(=O)N[C@@H](CCCNC(=N)N)C(=O)N[C@@H](Cc1c[nH]c2ccccc12)C(=O)N[C@@H](Cc1ccccc1)C(=O)N[C@@H](CC(N)=O)C(=O)N[C@H](C(=O)N[C@@H](Cc1c[nH]cn1)C(=O)NCC(=O)N[C@@H](CCCNC(=N)N)C(=O)N[C@@H](CCC(=O)O)C(=O)O)[C@@H](C)O", "note": "[Example 63] (Biotin-KGGGMLAERKAEERRWFNTHGRE-OH; C-terminus assumed)", "IC50": "0.5 to 200"}
{"compound": "CC[C@H](C)[C@@H]1NC(=O)[C@H](CCC(N)=O)NC(=O)[C@H](C(C)C)NC(=O)[C@@H]2CCCN2C(=O)[C@H](CO)NC(=O)[C@H](C(C)C)NC(=O)[C@H](Cc2c[nH]cn2)NC(=O)[C@@H](NC(=O)CNC(=O)[C@@H](N)CS)CSSC[C@@H](C(=O)O)NC(=O)[C@H](CC(C)C)NC(=O)[C@H](C)NC(=O)[C@H](CCCCN)NC1=O", "note": "[Example 71, CGCHVSPVQIKALC] (H-CGCHVSPVQIKALC-OH; disulfide 3-14; N-terminus and C-terminus assumed)", "IC50": "0.5 to 200"}
{"compound": "CC(C)C[C@H](NC(=O)[C@H](CS)NC(=O)[C@H](Cc1c[nH]cn1)NC(=O)[C@H](C)NC(=O)[C@@H](N)CC(C)C)C(=O)N[C@@H](CC(C)C)C(=O)N[C@@H](CCCNC(=N)N)C(=O)N[C@@H](CC(C)C)C(=O)N[C@@H](CCC(=O)O)C(=O)N[C@@H](CCC(=O)O)C(=O)N[C@@H](CS)C(=O)N[C@@H](C)C(=O)N[C@@H](C)C(=O)NCC(=O)O", "note": "[Example 48, LAHCLLRLEECAAG] (H-LAHCLLRLEECAAG-OH; N-terminus and C-terminus assumed)", "IC50": 200}
{"compound": "CC(C)C[C@H](NC(=O)[C@H](CCCCN)NC(=O)[C@H](CO)NC(=O)[C@H](CCC(=O)O)NC(=O)[C@H](CC(C)C)NC(=O)[C@H](Cc1ccc(O)cc1)NC(=O)[C@H](Cc1c[nH]c2ccccc12)NC(=O)[C@H](CC(C)C)NC(=O)[C@@H](N)CC(=O)O)C(=O)N[C@@H](CCC(=O)O)C(=O)N[C@@H](CCC(=O)O)C(=O)N[C@@H](C)C(=O)N[C@@H](C)C(=O)N[C@@H](CCCNC(=N)N)C(=O)N[C@@H](CCCNC(=N)N)C(=O)N[C@@H](CSSC[C@H](NC(=O)[C@H](CCCNC(=N)N)NC(=O)[C@H](CCCNC(=N)N)NC(=O)[C@H](C)NC(=O)[C@H](C)NC(=O)[C@H](CCC(=O)O)NC(=O)[C@H](CCC(=O)O)NC(=O)[C@H](CC(C)C)NC(=O)[C@H](CCCCN)NC(=O)[C@H](CO)NC(=O)[C@H](CCC(=O)O)NC(=O)[C@H](CC(C)C)NC(=O)[C@H](Cc1ccc(O)cc1)NC(=O)[C@H](Cc1c[nH]c2ccccc12)NC(=O)[C@H](CC(C)C)NC(=O)[C@@H](N)CC(=O)O)C(=O)N[C@@H](CC(N)=O)C(=O)NCC(N)=O)C(=O)N[C@@H](CC(N)=O)C(=O)NCC(N)=O", "note": "[Example 52] (I: H-DLWYLESKLEEAARRCNG-NH2 / II: H-DLWYLESKLEEAARRCNG-NH2; disulfide I:16-II:16)", "IC50": "0.5 to 200"}
{"compound": "I: LTAERDAEKRRWLLTHGGEGGK / II: LTAERDAEKRRWLLTHGGEGG (amide I:22-II:C) [Example 68]", "IC50": "> 200"}
